Measurements published in article PMC6919601, “Identification of Plasmodium dipeptidyl aminopeptidase allosteric inhibitors by high throughput screening” (PLoS ONE, 2019).
In all, about 110,000 compounds went through this assay and about 230 (0.21%) showed an effect of 50% or more. This is one part of the list.

Target: DPAP1 (Plasmodium falciparum, UniProt Q8IIJ9)
Test: primary screen, percent inhibition; read by cleavage of a fluorogenic dipeptide substrate; higher = more effect of the substance
Set-up: species or system P. falciparum D10 trophozoite lysates; single well
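Further: 30 min substrate incubation versus DMSO and 10 µM JCP410 controls.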

Chain of DPAP1 (Q8IIJ9 whole entry, looked up): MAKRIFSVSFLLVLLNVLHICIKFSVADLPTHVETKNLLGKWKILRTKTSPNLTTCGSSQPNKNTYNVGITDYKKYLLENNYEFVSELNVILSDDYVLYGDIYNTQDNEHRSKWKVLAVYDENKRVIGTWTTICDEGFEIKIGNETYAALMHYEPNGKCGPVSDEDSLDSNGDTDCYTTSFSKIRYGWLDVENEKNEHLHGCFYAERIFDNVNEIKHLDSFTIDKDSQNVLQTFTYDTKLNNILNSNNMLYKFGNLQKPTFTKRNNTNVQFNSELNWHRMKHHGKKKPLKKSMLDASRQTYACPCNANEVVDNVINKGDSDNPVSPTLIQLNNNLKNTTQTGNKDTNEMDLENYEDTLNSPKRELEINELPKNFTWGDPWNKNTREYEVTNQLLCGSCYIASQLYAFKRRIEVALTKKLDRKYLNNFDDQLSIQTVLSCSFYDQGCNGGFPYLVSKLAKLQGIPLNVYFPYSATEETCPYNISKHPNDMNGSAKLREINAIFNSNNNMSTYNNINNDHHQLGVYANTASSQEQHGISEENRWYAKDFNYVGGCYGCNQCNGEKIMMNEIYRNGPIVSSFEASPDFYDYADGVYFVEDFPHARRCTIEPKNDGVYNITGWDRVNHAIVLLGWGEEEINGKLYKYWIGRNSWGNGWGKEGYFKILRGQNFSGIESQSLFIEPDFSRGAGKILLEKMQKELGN

SMILES	% Inhibition @ 10 uM
CCCCNc1nc2c(-c3cccc(F)c3)nnn2c2ccccc12	-4.69%
N#Cc1ccc(NC(=O)[C@@H]2CCCC[C@@H]2C(=O)O)cc1	4.57%
Cc1ccc(-c2cc(NC(=O)c3cccs3)on2)cc1	1.9%
O=S(=O)(c1ccc(F)c(Cl)c1)N1CCN(Cc2ccccc2)CC1	-4.71%
O=C(COCc1cc(-c2ccc3c(c2)OCO3)on1)NCc1ccccc1	0.0322%
CCn1c(C)cc(/C=C2\SC(=O)N(CC(=O)Nc3ccc(C)c(C)c3)C2=O)c1C	-0.62%
Nc1ccc(O)c(-c2nc3cc(Cl)ccc3o2)c1	-3.65%
O=C1c2ccccc2C(Nc2ccc(Cl)cn2)N1Cc1ccccc1 (stereo not shown)	0.66%
CCOC(=O)c1c(NS(=O)(=O)c2cc(OC)c(Cl)cc2OC)sc2c1CCCC2	7.25%
COc1ccc(CCN2C(=O)CC(N3CCN(Cc4ccc5c(c4)OCO5)CC3)C2=O)cc1OC (stereo not shown)	4.44%
CN(C)c1nc(-c2ccccc2)c(C(=O)N2CCCC2)s1	-10.7%
CCOc1ccc(C(=O)N2CCc3ccccc32)cc1	-7.08%
CCOC(=O)c1[nH]c2ccccc2c1NC(=O)COC	0.813%
COc1ccccc1OCC(=O)NCCN1CCOCC1	1.52%
COC(=O)c1c(NC(=O)c2ccc(F)cc2)sc(C(=O)Nc2ccc(F)cc2)c1C	1.39%
Cc1nc2c(c(C)c1CCC(=O)NCc1cccnc1)c(=O)n(C)c(=O)n2C	0.44%
CC1=NN(c2ccccc2)C(=O)C1C(=O)c1ccc(F)cc1 (stereo not shown)	-4.26%
COc1ccc(CNC(=O)C(CC2CCCCC2)C(=O)NCC#N)cc1 (stereo not shown)	-0.214%
O=C1NC(=O)C(=Cc2ccc(N3CCOCC3)o2)C(=O)N1	-1.4%
COc1ccccc1C(=O)NC(=O)Nc1cc(C)nn1-c1cccc(F)c1	-0.403%
CN1C(=O)c2ccccc2C(C(=O)N2CCN(c3ccccn3)CC2)C1c1cccs1 (stereo not shown)	-3.37%
COc1ccccc1N1C(=O)c2cccnc2C1=O	-3.09%
COc1ccc(OC)c(-n2nnc(-c3nc(-c4ccccc4F)no3)c2N)c1	0.6%
Cn1c(=O)c2cn(N)cc2n(C)c1=O	0.884%
CCc1ccc(OCC(=O)NC2CCCCC2)c(Br)c1	2.01%
Cc1sc(NC(=O)CSc2ncn(-c3ccccc3)n2)nc1-c1ccccc1	3.58%
COc1ccccc1OCC(=O)Nc1sc2c(c1C(N)=O)CCCC2	4.32%
Cc1ccc2c(c1)cc1c(=O)n(CC(=O)N3CCN(Cc4ccccc4)CC3)nc(C)n12	1.68%
